# Test results: the supplement of paper PMC8728848
# This is one part of the list.
# What was measured:
# Assay in all cases: glycan array binding signal (z-score within array); higher = stronger binding
# Conditions in all cases: glycan notation: IUPAC condensed, linker removed
# [1] = target: Gal(a1-4)Gal(b1-4)Glc
# Method in brief: (§1)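 The binding signal is a Z-score computed within each array. Data were drawn from 3228 arrays in the Consortium for Functional Glycomics database, restricted to those with a known protein sequence. Scores were averaged over arrays of the same protein sequence at different concentrations or buffers, and over linkers, and negative values can be taken as non-binding.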
# [2] = target: Gal(a1-4)Gal(b1-4)GlcNAc
# Method in brief: as §1
# [3] = target: Gal(a1-4)GlcNAc
# Method in brief: as §1
# [4] = target: Gal(a1-6)Glc
# Method in brief: as §1
# [5] = target: Gal(b1-2)Gal
# Method in brief: as §1
# [6] = target: Gal(b1-3)Gal
# Method in brief: as §1
# [7] = target: Gal(b1-3)GalNAc
# Method in brief: as §1
# [8] = target: Gal(b1-3)GalNAc(b1-3)Gal(a1-4)Gal(b1-4)Glc
# Method in brief: as §1
# [9] = target: Gal(b1-3)GalNAc(b1-4)Gal(b1-4)Glc
# Method in brief: as §1
# [10] = target: Gal(b1-3)GalNAc(b1-4)[Neu5Ac(a2-3)]Gal(b1-4)Glc
# Method in brief: as §1
# [11] = target: Gal(b1-3)GlcNAc
# Method in brief: as §1
# [12] = target: Gal(b1-3)GlcNAc(b1-3)Gal(b1-4)Glc
# Method in brief: as §1
# [13] = target: Gal(b1-3)GlcNAc(b1-3)Gal(b1-4)GlcNAc
# Method in brief: as §1
# [14] = target: Gal(b1-3)[Fuc(a1-4)]GlcNAc
# Method in brief: as §1
# [15] = target: Gal(b1-3)[Fuc(a1-4)]GlcNAc(b1-3)Gal(b1-4)GlcNAc
# Method in brief: as §1
# [16] = target: Gal(b1-3)[Fuc(a1-4)]GlcNAc(b1-3)Gal(b1-4)[Fuc(a1-3)]GlcNAc
# Method in brief: as §1
# [17] = target: Gal(b1-3)[GlcNAc(b1-6)]GalNAc
# Method in brief: as §1
# [18] = target: Gal(b1-3)[Neu5Ac(a2-6)]GalNAc
# Method in brief: as §1
# [19] = target: Gal(b1-3)[Neu5Ac(a2-6)]GlcNAc(b1-6)Gal(b1-4)Glc
# Method in brief: as §1
# [20] = target: Gal(b1-3)[Neu5Ac(b2-6)]GalNAc
# Method in brief: as §1
# [21] = target: Gal(b1-4)GalNAc(a1-3)[Fuc(a1-2)]Gal(b1-4)GlcNAc
# Method in brief: as §1
# [22] = target: Gal(b1-4)GalNAc(b1-3)[Fuc(a1-2)]Gal(b1-4)GlcNAc
# Method in brief: as §1
# [23] = target: Gal(b1-4)Glc
# Method in brief: as §1
# [24] = target: Gal(b1-4)Glc6S
# Method in brief: as §1
# [25] = target: Gal(b1-4)GlcNAc
# Method in brief: as §1
# [26] = target: Gal(b1-4)GlcNAc(b1-2)Man(a1-3)[Gal(b1-4)GlcNAc(b1-2)Man(a1-6)]Man(b1-4)GlcNAc(b1-4)GlcNAc
# Method in brief: as §1
# [27] = target: Gal(b1-4)GlcNAc(b1-3)Gal(b1-4)Glc
# Method in brief: as §1
# [28] = target: Gal(b1-4)GlcNAc(b1-3)Gal(b1-4)GlcNAc
# Method in brief: as §1
# [29] = target: Gal(b1-4)GlcNAc(b1-3)Gal(b1-4)GlcNAc(b1-3)Gal(b1-4)GlcNAc
# Method in brief: as §1
# [30] = target: Gal(b1-4)GlcNAc(b1-3)Gal(b1-4)[Fuc(a1-3)]GlcNAc(b1-3)Gal(b1-4)[Fuc(a1-3)]GlcNAc
# Method in brief: as §1
# [31] = target: Gal(b1-4)GlcNAc(b1-3)GalNAc
# Method in brief: as §1
# [32] = target: Gal(b1-4)GlcNAc(b1-3)[Gal(b1-4)GlcNAc(b1-6)]GalNAc
# Method in brief: as §1
# [33] = target: Gal(b1-4)GlcNAc(b1-6)Gal(b1-4)GlcNAc(b1-6)GalNAc
# Method in brief: as §1
# [34] = target: Gal(b1-4)GlcNAc(b1-6)GalNAc
# Method in brief: as §1
# [35] = target: Gal(b1-4)GlcNAc(b1-6)[Gal(b1-3)]GalNAc
# Method in brief: as §1
# [36] = target: Gal3S(b1-3)GalNAc
# Method in brief: as §1
# [37] = target: Gal3S(b1-3)GlcNAc
# Method in brief: as §1
# [38] = target: Gal3S(b1-3)[Fuc(a1-4)]GlcNAc
# Method in brief: as §1
# [39] = target: Gal3S(b1-4)Glc
# Method in brief: as §1
# [40] = target: Gal3S(b1-4)Glc6S
# Method in brief: as §1
# [41] = target: Gal3S(b1-4)GlcNAc
# Method in brief: as §1
# [42] = target: Gal3S(b1-4)GlcNAc6S
# Method in brief: as §1
# [43] = target: Gal3S6S(b1-4)GlcNAc
# Method in brief: as §1
# [44] = target: Gal3S6S(b1-4)GlcNAc6S
# Method in brief: as §1
# [45] = target: Gal4S(b1-4)GlcNAc
# Method in brief: as §1
binder,measurement,setting,value
MPA (Maclura pomifera) (protein) GVTFDDGAYTGIREINFEYNSETAIGGLRVTYDLNGMPFVAEDHKSFITGFKPVKISLEFPSEYIVEVSGYVGKVEGYTVIRSLTFKTNKQTYGPYGVTNGTPFSLPIENGLIVGFKGSIGYWLDYFSIYLSLNGPNGKSQSIIVGPWGDRVTN,glycan array binding signal (z-score),[1],-0.24
same,glycan array binding signal (z-score),[2],-0.24
same,glycan array binding signal (z-score),[3],2.68
same,glycan array binding signal (z-score),[4],1.01
same,glycan array binding signal (z-score),[5],-0.224
same,glycan array binding signal (z-score),[6],0.227
same,glycan array binding signal (z-score),[7],3.3
same,glycan array binding signal (z-score),[8],-0.24
same,glycan array binding signal (z-score),[9],-0.246
same,glycan array binding signal (z-score),[10],-0.247
same,glycan array binding signal (z-score),[11],-0.232
same,glycan array binding signal (z-score),[12],-0.243
same,glycan array binding signal (z-score),[13],-0.244
same,glycan array binding signal (z-score),[14],-0.229
same,glycan array binding signal (z-score),[15],-0.224
same,glycan array binding signal (z-score),[16],-0.217
same,glycan array binding signal (z-score),[17],-0.242
same,glycan array binding signal (z-score),[18],-0.246
same,glycan array binding signal (z-score),[19],-0.244
same,glycan array binding signal (z-score),[20],-0.247
same,glycan array binding signal (z-score),[21],-0.244
same,glycan array binding signal (z-score),[22],-0.249
same,glycan array binding signal (z-score),[23],-0.209
same,glycan array binding signal (z-score),[24],-0.217
same,glycan array binding signal (z-score),[25],-0.198
same,glycan array binding signal (z-score),[26],-0.202
same,glycan array binding signal (z-score),[27],-0.234
same,glycan array binding signal (z-score),[28],-0.225
same,glycan array binding signal (z-score),[29],-0.249
same,glycan array binding signal (z-score),[30],-0.227
same,glycan array binding signal (z-score),[31],5.97
same,glycan array binding signal (z-score),[32],-0.166
same,glycan array binding signal (z-score),[33],-0.17
same,glycan array binding signal (z-score),[34],-0.161
same,glycan array binding signal (z-score),[35],-0.158
same,glycan array binding signal (z-score),[36],4.41
same,glycan array binding signal (z-score),[37],-0.237
same,glycan array binding signal (z-score),[38],-0.183
same,glycan array binding signal (z-score),[39],-0.228
same,glycan array binding signal (z-score),[40],-0.222
same,glycan array binding signal (z-score),[41],-0.225
same,glycan array binding signal (z-score),[42],-0.228
same,glycan array binding signal (z-score),[43],-0.233
same,glycan array binding signal (z-score),[44],-0.23
same,glycan array binding signal (z-score),[45],-0.232
